# Reference: paper PMC10668032
# The other results are listed elsewhere or left out. At the low end of the ranking the order means little.
# Molecular target: SIX1-Q177R homeodomain (UniProt Q15475)
# Assay: universal protein binding microarray
# Conditions: Universal all-10-mer PBM (8x60K, AMADID 030236), 300 nM GST-tagged protein, Alexa Fluor 488 anti-GST; buffer, salt, pH and temperature not stated; high values mean tight binding; most listed sequences are background and not binding sites; double strand, one strand shown
row,Sequence,binding signal
1,CTTACTCA,-0.0652 E-score
2,CATGAGCG,-0.369 E-score
3,GGCTCACC,-0.093 E-score
4,CGGATACG,0.128 E-score
5,CGCACAGC,-0.0467 E-score
6,GATTCTGC,-0.175 E-score
7,AATCGAAA,-0.248 E-score
8,TTCCCGAA,0.00062 E-score
9,CAAATAGG,0.011 E-score
10,CCGGGCGA,0.151 E-score
11,AAATTCTG,-0.074 E-score
12,GGCGGGAA,0.00054 E-score
13,ACGGTCAA,0.0475 E-score
14,AGGTTGTC,0.0665 E-score
15,CTGCGATC,0.0103 E-score
16,GCTACCTA,-0.23 E-score
17,AGTCGGGA,0.0497 E-score
18,CTGTATGA,-0.117 E-score
19,CAAGTCAG,-0.135 E-score
20,CTCCCTTC,0.0495 E-score
21,ATATCGCC,-0.107 E-score
22,GTCGTAAC,0.142 E-score
23,GACATTCA,-0.0873 E-score
24,GCGCTGGA,-0.182 E-score
25,GAGATTCA,0.0252 E-score

row,Sequence,binding signal
1,ATGGACTC,-0.00551 E-score
2,CGACCCAG,0.0629 E-score
3,CGTGAGAA,-0.0508 E-score
4,AAGGCATC,-0.171 E-score
5,CAGAAAGA,-0.0959 E-score
6,AGCCTAAA,-0.0843 E-score
7,CCCTACTC,0.19 E-score
8,CCAGACGG,-0.135 E-score
9,AAAGTCAA,-0.119 E-score
10,ACCAATAC,0.157 E-score
11,AACACATG,0.0393 E-score
12,CGTCATTC,0.105 E-score
13,GTTACGAA,-0.224 E-score
14,CAATTGAG,-0.122 E-score
15,ACTCCCTA,0.0637 E-score
16,TAGAATGA,-0.00577 E-score
17,TAGTGTGA,0.258 E-score
18,CGCCACAG,-0.00816 E-score
19,GAGGGTCC,-0.0954 E-score
20,AAACTAAC,-0.0659 E-score
21,ATGACAGG,-0.161 E-score
22,AAGCTGCG,-0.0893 E-score
23,ACACCACG,0.477 E-score
24,CGCCCGAG,0.0232 E-score
25,CCATGTGA,0.0239 E-score

row,Sequence,binding signal
1,GCTAGCCC,-0.25 E-score
2,GAATAAAA,-0.0519 E-score
3,ACTCGTCA,0.0677 E-score
4,AGTAGGTA,-0.0851 E-score
5,ATGTTGTG,-0.106 E-score
6,AGTCAAGC,-0.206 E-score
7,CAGACGAC,0.0216 E-score
8,ATCCGTAG,-0.0994 E-score
9,AAGGCGTC,0.129 E-score
10,GCTTAATA,-0.0465 E-score
11,CGACACGA,0.421 E-score
12,CGGACGTA,-0.00201 E-score
13,CAGCCCTG,-0.0658 E-score
14,AACATAGC,-0.105 E-score
15,ATTGAGTC,0.117 E-score
16,GAAAGTAA,-0.096 E-score
17,AGCGTAGG,-0.0333 E-score
18,CCATGGGA,0.153 E-score
19,CTGCTCTA,-0.041 E-score
20,GAACTTGC,-0.139 E-score
21,CATTATGA,-0.196 E-score
22,CCGATGTA,0.0189 E-score
23,CGACCGGA,-0.0307 E-score
24,CGTTCATC,-0.0613 E-score
25,GAACGTGC,-0.192 E-score

row,Sequence,binding signal
1,GAATCAGC,-0.175 E-score
2,ATGAAGAA,-0.133 E-score
3,GGTGTCGA,0.487 E-score
4,AAGTTCTA,-0.156 E-score
5,CGGCCCCA,-0.112 E-score
6,AAACGCAA,-0.083 E-score
7,ATCTCATA,-0.114 E-score
8,TCGAAACA,0.111 E-score
9,GGACCCTA,0.0373 E-score
10,ACCGTCTG,-0.0931 E-score
11,AGGAGGGA,-0.0403 E-score
12,TCCGATAA,-0.0829 E-score
13,AAAGCCCT,-0.258 E-score
14,CCCAAGGA,0.145 E-score
15,CCAGGGTC,0.0483 E-score
16,GTGAAAGA,-0.138 E-score
17,TAGATAAA,-0.0107 E-score
18,CATGGTGG,0.192 E-score
19,AAAGTAGT,-0.0542 E-score
20,GTACTAAC,0.0577 E-score
21,CCGGCGCC,-0.0804 E-score
22,TAAAAGGA,-0.155 E-score
23,GCATTGAC,0.075 E-score
24,GGCCCAGA,-0.271 E-score
25,GCGGATTA,0.0242 E-score

row,Sequence,binding signal
1,ACGGCACT,-0.0842 E-score
2,CTATAAGC,-0.174 E-score
3,GTTTGGTA,0.0612 E-score
4,ACTCGTAG,0.0813 E-score
5,ACTGTTAA,-0.0992 E-score
6,ATGATCAG,-0.133 E-score
7,ACGATAAG,-0.094 E-score
8,AAGTCGAG,0.0559 E-score
9,TACCCGTA,0.168 E-score
10,CGCTCACG,-0.137 E-score
11,GGTGCTAA,0.212 E-score
12,ACCACAGT,0.22 E-score
13,TTACGCAA,-0.0846 E-score
14,AATCCAGC,-0.118 E-score
15,TCGGGGAA,0.172 E-score
16,AACACACG,0.231 E-score
17,AACGAAGG,-0.324 E-score
18,ACGCCTGG,0.128 E-score
19,AATTTGCC,-0.283 E-score
20,GGAAGCGA,-0.238 E-score
21,ACTCAACT,-0.0929 E-score
22,AGATGAGG,-0.135 E-score
23,ACCGAATC,0.00705 E-score
24,ACCGTTCA,0.0409 E-score
25,ATTCTAGC,0.0215 E-score

row,Sequence,binding signal
1,CACCCTAC,0.387 E-score
2,CGATCAAC,-0.146 E-score
3,AAATCAGA,-0.0536 E-score
4,CCGCGGAG,0.0522 E-score
5,CGAAGAAG,-0.0975 E-score
6,ACCGTATG,0.0424 E-score
7,ACGGCGCT,-0.147 E-score
8,CAGGAAGC,-0.183 E-score
9,TTCCGGAA,0.119 E-score
10,CATACTGG,-0.0355 E-score
11,CCTAGCAA,0.0893 E-score
12,ACAGGAAA,-0.075 E-score
13,CAAGAAGG,0.0701 E-score
14,AATTGCGG,-0.0813 E-score
15,GTCATAAC,0.069 E-score
16,GTTGTCGA,-0.00152 E-score
17,CTGGTTTC,-0.252 E-score
18,GGTACTGA,0.0678 E-score
19,TAGCACAA,-0.198 E-score
20,CCTTGATA,-0.0158 E-score
21,AACAGGGT,0.0771 E-score
22,GCTTCAAC,0.0341 E-score
23,TTGGCCAA,0.062 E-score
24,AGCCTGGG,0.0236 E-score
25,CGCTGTGC,-0.0677 E-score

row,Sequence,binding signal
1,CCGATCAG,-0.154 E-score
2,AAGCCAAT,-0.135 E-score
3,GACGAGCC,0.0315 E-score
4,ACGCCGAG,0.144 E-score
5,CTCACCGC,0.0619 E-score
6,AATCCGTC,-0.0414 E-score
7,ACAAAACT,-0.0435 E-score
8,GAAAACGA,-0.152 E-score
9,AGTGCCAT,0.0922 E-score
10,AGACGTCA,-0.0593 E-score
11,CAAACTAC,0.0067 E-score
12,CGAGAGCC,-0.209 E-score
13,CGGAAACG,0.038 E-score
14,GGCAGTAC,-0.077 E-score
15,GAGCCATA,-0.136 E-score
16,GGACCGGA,-0.102 E-score
17,CTCCCACC,-0.0694 E-score
18,AGCTGCCA,-0.243 E-score
19,AACTCCTG,0.122 E-score
20,ACAAGCAG,-0.0622 E-score
21,AGTACCCG,0.154 E-score
22,CTAGCAAC,0.0621 E-score
